In article PMC6362084:
No constants are given. Whether binding was seen depends on the method and setting. Binding seen in cells or lysates may run through a third protein. Some results given as binding are weak or reduced against the parent protein; the word gives no strength. Each block holds one molecule with its values, some of them ahead of it.

The chains behind the UniProt entries cited, without tags or fusion partners. Residues count along the entry.
UniProt Q9QUN7, residues 25-784: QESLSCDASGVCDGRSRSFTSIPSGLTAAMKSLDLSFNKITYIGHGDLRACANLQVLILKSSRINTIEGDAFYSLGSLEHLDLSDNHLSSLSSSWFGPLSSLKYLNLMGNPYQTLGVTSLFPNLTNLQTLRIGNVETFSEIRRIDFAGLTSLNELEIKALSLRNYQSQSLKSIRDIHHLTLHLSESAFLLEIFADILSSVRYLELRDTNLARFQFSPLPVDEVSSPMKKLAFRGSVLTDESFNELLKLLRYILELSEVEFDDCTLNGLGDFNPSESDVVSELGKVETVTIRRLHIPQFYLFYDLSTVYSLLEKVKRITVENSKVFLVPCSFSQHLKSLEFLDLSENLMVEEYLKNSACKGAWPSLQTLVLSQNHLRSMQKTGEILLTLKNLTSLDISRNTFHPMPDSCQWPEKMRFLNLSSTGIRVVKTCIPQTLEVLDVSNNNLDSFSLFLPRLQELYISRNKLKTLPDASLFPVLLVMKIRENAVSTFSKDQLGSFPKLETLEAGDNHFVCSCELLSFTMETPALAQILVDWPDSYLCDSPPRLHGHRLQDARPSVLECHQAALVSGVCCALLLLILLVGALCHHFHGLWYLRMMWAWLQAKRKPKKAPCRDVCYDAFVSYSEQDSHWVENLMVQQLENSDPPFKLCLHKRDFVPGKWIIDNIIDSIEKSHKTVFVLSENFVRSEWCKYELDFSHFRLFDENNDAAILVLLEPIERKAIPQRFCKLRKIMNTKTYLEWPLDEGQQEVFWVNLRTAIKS
UniProt Q9QUK6, residues 26-835: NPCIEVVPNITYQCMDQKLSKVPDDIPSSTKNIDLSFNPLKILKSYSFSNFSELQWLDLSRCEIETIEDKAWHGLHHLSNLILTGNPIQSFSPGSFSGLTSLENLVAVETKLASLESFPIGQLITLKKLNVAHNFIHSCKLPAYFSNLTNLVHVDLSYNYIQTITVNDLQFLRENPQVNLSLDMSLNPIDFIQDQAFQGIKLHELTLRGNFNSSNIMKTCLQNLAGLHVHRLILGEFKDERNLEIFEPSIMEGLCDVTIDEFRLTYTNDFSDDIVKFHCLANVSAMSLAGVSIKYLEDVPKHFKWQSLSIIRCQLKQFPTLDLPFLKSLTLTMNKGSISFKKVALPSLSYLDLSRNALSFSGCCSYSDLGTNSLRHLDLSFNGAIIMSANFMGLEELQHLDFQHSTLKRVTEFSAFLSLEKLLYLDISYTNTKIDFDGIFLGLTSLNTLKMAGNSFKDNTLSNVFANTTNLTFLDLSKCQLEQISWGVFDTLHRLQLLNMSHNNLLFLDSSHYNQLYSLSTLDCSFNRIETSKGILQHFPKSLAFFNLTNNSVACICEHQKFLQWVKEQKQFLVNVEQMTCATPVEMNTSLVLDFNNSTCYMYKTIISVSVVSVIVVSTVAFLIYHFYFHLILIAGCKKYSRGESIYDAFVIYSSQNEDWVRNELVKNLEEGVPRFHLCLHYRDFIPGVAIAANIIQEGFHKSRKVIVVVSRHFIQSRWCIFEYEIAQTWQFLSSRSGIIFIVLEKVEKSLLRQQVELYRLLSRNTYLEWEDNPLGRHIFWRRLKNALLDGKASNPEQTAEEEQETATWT
UniProt P23576, residues 29-451: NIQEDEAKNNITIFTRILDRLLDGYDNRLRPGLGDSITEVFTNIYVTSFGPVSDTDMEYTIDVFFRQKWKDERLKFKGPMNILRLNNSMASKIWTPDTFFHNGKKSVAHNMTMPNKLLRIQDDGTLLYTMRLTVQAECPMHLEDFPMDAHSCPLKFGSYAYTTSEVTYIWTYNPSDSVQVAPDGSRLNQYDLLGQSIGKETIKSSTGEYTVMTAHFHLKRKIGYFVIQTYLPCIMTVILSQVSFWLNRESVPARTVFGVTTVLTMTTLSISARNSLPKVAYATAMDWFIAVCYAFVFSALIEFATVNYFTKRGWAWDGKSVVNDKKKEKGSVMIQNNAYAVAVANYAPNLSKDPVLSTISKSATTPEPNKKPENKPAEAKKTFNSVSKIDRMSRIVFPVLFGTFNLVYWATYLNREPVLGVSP
UniProt P63158: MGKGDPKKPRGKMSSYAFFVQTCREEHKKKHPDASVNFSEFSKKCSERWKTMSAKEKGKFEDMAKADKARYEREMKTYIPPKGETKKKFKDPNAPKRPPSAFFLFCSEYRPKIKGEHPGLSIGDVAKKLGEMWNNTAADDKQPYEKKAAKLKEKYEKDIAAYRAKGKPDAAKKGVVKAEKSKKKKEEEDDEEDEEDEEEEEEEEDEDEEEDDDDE
UniProt Q6Y1S1: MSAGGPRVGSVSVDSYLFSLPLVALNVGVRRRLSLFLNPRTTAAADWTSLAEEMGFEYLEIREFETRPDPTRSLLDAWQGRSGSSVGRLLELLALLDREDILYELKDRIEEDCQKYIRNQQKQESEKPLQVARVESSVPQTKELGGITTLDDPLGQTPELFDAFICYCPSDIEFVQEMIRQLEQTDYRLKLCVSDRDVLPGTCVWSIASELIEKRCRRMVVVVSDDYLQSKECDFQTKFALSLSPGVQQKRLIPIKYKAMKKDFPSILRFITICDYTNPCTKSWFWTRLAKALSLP
UniProt P63159: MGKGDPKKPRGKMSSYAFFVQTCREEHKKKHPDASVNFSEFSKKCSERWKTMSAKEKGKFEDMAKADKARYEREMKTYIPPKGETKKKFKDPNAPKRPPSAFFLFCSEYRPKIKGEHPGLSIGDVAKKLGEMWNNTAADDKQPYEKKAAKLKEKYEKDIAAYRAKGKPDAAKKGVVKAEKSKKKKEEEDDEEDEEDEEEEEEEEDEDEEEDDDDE

How the values were obtained:
[1] = target: TLR2, mouse, endogenous in RAW264.7 cells (mouse (endogenous in RAW264.7)) (UniProt Q9QUN7); assay: co-IP; RAW264.7 cells treated 24 hrs with LPS (1 μg/ml) without or with 3α,5α-THP (1 μM) or pregnenolone (1 μM); cross-linked with membrane-permeable DSP (1 mM, 20 min on ice); extracted with Pierce IP Lysis Buffer; immunoprecipitated with antibody to TLR4 or TLR2 (normal IgG control); immunoblotted with MD-2 or HMGB1 antibody
[2] = target: toll-like 4 receptor (TLR4), mouse, endogenous in RAW264.7 cells (mouse (endogenous in RAW264.7)) (UniProt Q9QUK6); assay: as above
[3] = target: T1, toll-like 4 receptor (TLR4), rat, endogenous in P rat VTA (rat (endogenous in P rat VTA)) (UniProt Q9QX05); assay: co-IP; P rat VTA micropunch extracts (CelLytic MT), rats naive or given vehicle or 3α,5α-THP (15 mg/kg, IP, 45 min); immunoprecipitated with antibody to TLR4 or α2 (normal IgG control); immunoblotted with α2, TLR4, MyD88 or HMGB1 antibodies
T1 sequence: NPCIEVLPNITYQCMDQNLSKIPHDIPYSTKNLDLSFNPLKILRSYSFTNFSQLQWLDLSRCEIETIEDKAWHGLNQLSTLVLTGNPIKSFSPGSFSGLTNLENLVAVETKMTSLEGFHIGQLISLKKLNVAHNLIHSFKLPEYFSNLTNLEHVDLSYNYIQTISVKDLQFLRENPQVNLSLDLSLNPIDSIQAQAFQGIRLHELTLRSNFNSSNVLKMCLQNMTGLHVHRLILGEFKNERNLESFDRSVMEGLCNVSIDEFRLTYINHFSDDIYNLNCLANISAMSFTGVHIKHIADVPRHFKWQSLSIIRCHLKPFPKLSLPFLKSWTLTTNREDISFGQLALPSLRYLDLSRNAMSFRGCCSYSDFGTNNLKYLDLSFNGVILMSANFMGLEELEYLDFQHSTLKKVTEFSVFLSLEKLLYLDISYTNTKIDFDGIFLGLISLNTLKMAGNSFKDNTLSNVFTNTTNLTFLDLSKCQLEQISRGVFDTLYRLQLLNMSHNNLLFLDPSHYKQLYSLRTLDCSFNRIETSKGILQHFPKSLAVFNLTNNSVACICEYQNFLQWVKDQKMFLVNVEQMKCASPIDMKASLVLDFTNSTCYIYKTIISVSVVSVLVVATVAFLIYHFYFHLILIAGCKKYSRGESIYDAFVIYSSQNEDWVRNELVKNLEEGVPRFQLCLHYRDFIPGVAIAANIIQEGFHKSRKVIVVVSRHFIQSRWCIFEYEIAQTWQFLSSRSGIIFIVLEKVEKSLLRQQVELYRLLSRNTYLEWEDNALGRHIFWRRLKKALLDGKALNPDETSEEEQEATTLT

[4] = target: GABAA receptor α2 subunit, rat, endogenous in P rat VTA (rat (endogenous in P rat VTA)) (UniProt P23576); assay: as above

binding [1]: binds | binding [2]: binds
Molecule: high mobility group box-1 (HMGB1), mouse, endogenous in RAW264.7 cells (from UniProt P63158 1-215)

binding [3]: binds
Molecule: myeloid differentiation primary response 88 (MyD88), rat, endogenous in P rat VTA (from UniProt Q6Y1S1 1-296)

binding [3]: binds
Molecule: high mobility group box-1 (HMGB1), rat, endogenous in P rat VTA (from UniProt P63159 1-215)

binding [1]: no binding | binding [2]: binds
B1: MD-2 (myeloid differentiation factor 2), mouse, endogenous in RAW264.7 cells (protein, UniProt Q9JHF9 19-160)
chain: EKQQWFCNSSDAIISYSYCDHLKFPISISSEPCIRLRGTNGFVHVEFIPRGNLKYLYFNLFISVNSIELPKRKEVLCHGHDDDYSFCRALKGETVNTSIPFSFEGILFPKGHYRCVAEAIAGDTEEKLFCLNFTIIHRRDVN

binding [4]: binds
B2: toll-like 4 receptor (TLR4), rat, endogenous in P rat VTA (receptor, UniProt Q9QX05 26-835)
chain: T1 sequence
